Results taken from publication PMC12136788.
The other results are listed elsewhere or left out.

B1: chr14:70725707:70725808:-|3pUTR|ENSG00000006432|unk|total|mutant (ssRNA)
RNA: GGGAGUUCUACAGUCCGACGAUCGUCGAAUAUCAGCUAUUUCAUAUGGUUCACCCUAAUGUACCUGCCUCUCUCUUUGGCUUCCGGUCUGAGAAUGACUUGUCUUUGUCAAGGUAUACUAUUGUCCGAAACGCAUUACCAAAUCAACAGAGGAUUGAGCAUCA
B2: chr1:32680599:32680700:+|3pUTR|ENSG00000162521|msi1|total|mutant (ssRNA)
RNA: GGGAGUUCUACAGUCCGACGAUCAAGUGCUUAAAAUGGAAUAAAUUGCUUUUCUACAUAACCCCAUGCUGAUGGGUUUUAUUCCGUAUAAAACAUCCAUCAAACACCAGUCUCUGGCUUCCCGAAGAGUCCUUCAGAUGACAGCAACAGAGGAUUGAGCAUCA
B3: chr19:6380113:6380214:-|3pUTR|ENSG00000125651|msi1|total|mutant (ssRNA)
RNA: GGGAGUUCUACAGUCCGACGAUCACUUCAGGCUCUCAGUGACCCUUCGACAUCCUGCUUGCUCCCUGACUCCCAGGGCCCCGCCGUCCGCAAUUCUGGAAAAGUUAAGCCAUCUCCUCCUCUGGCCCUUCCUUCUGGAAUCUUCAACAGAGGAUUGAGCAUCA
B4: chr1:117368288:117368465:+|CDS|ENSG00000198162|unk|total|mutant (ssRNA)
RNA: GGGAGUUCUACAGUCCGACGAUCUUUUGGGGCAUUCUUUUUCCUUCCAGACUCUUCAAAACACAAACGCUUUGAUUUGGGUUCCGAAGAUGUGUUAAUUCCACAUGCCGAUGCCGGUAAAGGGGCUAAAAACCCCGGAGUCUUCAACAGAGGAUUGAGCAUCA
B5: chr7:139079551:139079652:-|CDS|ENSG00000105939|unk|total|mutant (ssRNA)
RNA: GGGAGUUCUACAGUCCGACGAUCAAUGCUGAUGGAGUGGCCACAGAUAUAACUUCUACCAGAUCCUUAAAUUACAAAAGCACCCGCAGCGGUCACAGAGAAAUAUCAUCACCCCGGAUUCAGGAUGCUGGACCUGCUUCCCGACAACAGAGGAUUGAGCAUCA
B6: chr12:39550845:39550946:-|3pUTR|ENSG00000173208|unk|total|mutant (ssRNA)
RNA: GGGAGUUCUACAGUCCGACGAUCGGUUCCAAGUACCGUUUCAUAUUUGGCAACCGAUUCAUCUUAUUCUAAUAUGUUUGGAACCGCUUUUUGAUUCAAUGAGUCCCGGAAAAUCUGUUACACAUUGAAACCCAAGUCCAGAGACAACAGAGGAUUGAGCAUCA
B7: chr1:162785649:162785750:+|3pUTR|ENSG00000162733|unk|total|mutant (ssRNA)
RNA: GGGAGUUCUACAGUCCGACGAUCUGAAUGUUGUUUUUUUGAAUGAACAUAAGACCGAAACAAAAACUUCUCAUCCAGUUAACCCGAGUGAAUGCCGGGAGAAUUGUUUUGCUUGUAACAUGGAGAGUUUAUUUUCAAGUGAGGCAACAGAGGAUUGAGCAUCA
B8: chr2:9585027:9585123:-|3pUTR|ENSG00000134308|msi1_unk|FALSE|overlapping (ssRNA)
RNA: GGGAGUUCUACAGUCCGACGAUCGGAAAACUUCAUUCCUUGAUUUGUGUUUGUCUUGGCCUUCCUGGUGUGCAGUACUGCUGUAGAAAAGUAUUAAUAGCUUCAUUUCAUAUAAACAUAAGUAACUCCCAAACACUUAUGUAGCAACAGAGGAUUGAGCAUCA
B9: chr15:74179522:74179623:-|3pUTR|ENSG00000137868|msi1|FALSE|unique (ssRNA)
RNA: GGGAGUUCUACAGUCCGACGAUCUCAUGACUCAGACCAGGUCCCACACUGAGCUGCCCACACUCGAGAGCCAGAUAUUUUUGUAGUUUUUAUGCCUUUGGCUAUUAUGAAAGAGGUUAGUGUGUUCCCUGCAAUAAACUUGUUCAACAGAGGAUUGAGCAUCA
B10: chr20:63196482:63196583:-|3pUTR|ENSG00000149658|msi1|FALSE|unique (ssRNA)
RNA: GGGAGUUCUACAGUCCGACGAUCUGAUUUUUGCCCAGAUGGAUCUGCAUUUAUUUGUACUUUUUCUAUGUAUUAUAAUCCUGUAGAAGUCACUAAUAAAGGAGUAUUUUUUUUGUCAGCUUAUCAAUCAGACUGAUCUAAUGUCAACAGAGGAUUGAGCAUCA
B11: chr16:66721972:66722075:-|3pUTR|ENSG00000135720|unk|total|mutant (ssRNA)
RNA: GGGAGUUCUACAGUCCGACGAUCUUUUUAAUUCAGUUUUUUAAAAAAACAAAUGUAUUGUGGCUUCCAGUUACCAGGUUGUCCCGGUAAUGACAGUAAACUGACUGCCGAAUGAUAAUUGUGGUACCGUGACCAACCGAUGCCCAACAGAGGAUUGAGCAUCA
B12: chr4:108667705:108667793:+|3pUTR|ENSG00000198856|msi1_unk|total|mutant (ssRNA)
RNA: GGGAGUUCUACAGUCCGACGAUCUCUGGACAGUUGAUCAGCUUUACCUAUGGUGCUUUGCCUUUAACCCGAGUGUGUGAUGGCCGAUUAUUUCAGAUAUGUAUGUAAAACUGUUUCCUGAACAAUAAGAUGUAUGAACGGAGCCAACAGAGGAUUGAGCAUCA
B13: chr9:132694550:132694651:+|3pUTR|ENSG00000125484|unk|FALSE|bound_elsewhere (ssRNA)
RNA: GGGAGUUCUACAGUCCGACGAUCUUCCUGAAGAUUACAUAUCAGUGUCCUGCGUUUUUAUCUAAUAUUAGAGCUGAGGUUCCUAGGAAAAUUUUGAAGUGGGGAAGAUUAUGGAGAAAAUGAAAUGGAAAUUUGGGGAGGGUGCAACAGAGGAUUGAGCAUCA
B14: chr1:86745841:86745942:+|3pUTR|ENSG00000097033|msi1|total|mutant (ssRNA)
RNA: GGGAGUUCUACAGUCCGACGAUCAUGGUGCAGUUCAGAAUUGUUUAAAUAAGCUCUGUGCCACUGAGCUUAAUCUGAAAGUACCGUGACAUGUGAAGGAUGCACAUAUGAAUGAAAAACUAAAAUAAUUGCCGGCUCUUCUAUCAACAGAGGAUUGAGCAUCA
B15: chr11:85659139:85659240:-|3pUTR|ENSG00000137504|msi1|FALSE|unique (ssRNA)
RNA: GGGAGUUCUACAGUCCGACGAUCGUCUGAUUUAGUAAAAUUUUAAAGCUAAAUAAUCUGAUGACUCUUGAAAGUUUAAUUGGUAGUAUGACAUUUAUGUUUUUUUCCCCCAGACUCACAGCCAAUACAAAGUUUUGAGACUCCCAACAGAGGAUUGAGCAUCA
B16: chr15:58597255:58597356:-|3pUTR|ENSG00000137845|unk|total|mutant (ssRNA)
RNA: GGGAGUUCUACAGUCCGACGAUCUGGAAAAGGAACCCAAUUUUCUUAUGAACAGAUAUUUUUAACUUAAUGGCACAAAGUCUCCGAAUAUUAUUAUGUGCCCCGUGUUCCCUGUUCUUCGUUGCUGCAUUUUCUUCACUUGCACAACAGAGGAUUGAGCAUCA
B17: chr9:26926431:26926536:-|CDS|ENSG00000137055|unk|total|mutant (ssRNA)
RNA: GGGAGUUCUACAGUCCGACGAUCAGAGGUUUGGCAAUUUUGAGUGAAACAGAAUUUCUUUCCUGUGCAAAUGAUGCCCGUAUCCGAAGGUGGCAAAUCACUGGCGAGUGUCUUGAAGUAUAUUAUGGACAUACAAAUUAUAUUCAACAGAGGAUUGAGCAUCA
B18: ENSG00000100350:stop:overlap|stop_codon|ENSG00000100350|stop_codon|NA|stop_codon (ssRNA)
RNA: GGGAGUUCUACAGUCCGACGAUCGGCGACCAAGAGCCACUAGGUUCCCCCCUGGCUCCAGGGCCUCUGGCUCAGUCCGUCGAUAGCAACAAAGAGGAGCUCUGACUGUCCCUUCCUAAGCUGUGGGCACAGUGGCCAGGCCUCCAACAGAGGAUUGAGCAUCA
B19: chr2:200815332:200815484:+|CDS|ENSG00000082153|unk|total|mutant (ssRNA)
RNA: GGGAGUUCUACAGUCCGACGAUCUCAGUUUCAAGACUGUAUUAUUCAAGGCUUAACUGAAACCGGUACUGAUUUGGAAGCAGCCGCUAAGUUUCUUGAUGCUUCUGGAGCAAAACUUGAUUACCGUCGAUAUGCAGAAACACUCAACAGAGGAUUGAGCAUCA
B20: ENSG00000147955:stop:overlap|stop_codon|ENSG00000147955|stop_codon|NA|stop_codon (ssRNA)
RNA: GGGAGUUCUACAGUCCGACGAUCCUUCCACCAGUGGAGAGAGGGCACCACCAAAAGUGAGGUCUUCUACCCAGGGGAGACGGUAGUACACGGGCCUGGUGAGGCAACAGCUGUGGAGUGGGGGCCAAACACAUGGAUGGUGGACAACAGAGGAUUGAGCAUCA
B21: ENSG00000066855:stop:overlap|stop_codon|ENSG00000066855|stop_codon|NA|stop_codon (ssRNA)
RNA: GGGAGUUCUACAGUCCGACGAUCGAGUGUUGUCCCUUCCAGCUGGCUUUAUUCAGCCCCACGUGUCCAAGCAUUGUCUGGGAUAGCCUUGUAUUGGAAAACCUGGCCCAUUCUGUAAAUAAAGGCUCCACUAGAAAAGACUCGCAACAGAGGAUUGAGCAUCA
B22: chr1:23559171:23559278:-|CDS|ENSG00000117318|unk|FALSE|unique (ssRNA)
RNA: GGGAGUUCUACAGUCCGACGAUCAACCACUGCUACUCCCGCCUGCGGGAACUGGUACCCGGAGUCCCGAGAGGCACUCAGCUUAGCCAGGUGGAAAUCCUACAGCGCGUCAUCGACUACAUUCUCGACCUGCAGGUAGUCCUGCAACAGAGGAUUGAGCAUCA

Each binder was assayed against MSI1 full-length (mouse, UniProt Q61474 1-362) (assay: nsRBNS (natural sequence RNA bind-n-seq); RBNS binding buffer (assumed for nsRBNS): 25 mM Tris pH 7.5, 150 mM KCl, 3 mM MgCl2, 0.01% Triton X-100, 500 ug/ml BSA, 20 U/ml SUPERase-In, 4 C; UNK is unkempt and MSI1 is Musashi-1; names of the RNAs are library labels; protein concentration not given here; high values mean tight binding).
Sequence of UniProt Q61474 (Q61474 whole entry): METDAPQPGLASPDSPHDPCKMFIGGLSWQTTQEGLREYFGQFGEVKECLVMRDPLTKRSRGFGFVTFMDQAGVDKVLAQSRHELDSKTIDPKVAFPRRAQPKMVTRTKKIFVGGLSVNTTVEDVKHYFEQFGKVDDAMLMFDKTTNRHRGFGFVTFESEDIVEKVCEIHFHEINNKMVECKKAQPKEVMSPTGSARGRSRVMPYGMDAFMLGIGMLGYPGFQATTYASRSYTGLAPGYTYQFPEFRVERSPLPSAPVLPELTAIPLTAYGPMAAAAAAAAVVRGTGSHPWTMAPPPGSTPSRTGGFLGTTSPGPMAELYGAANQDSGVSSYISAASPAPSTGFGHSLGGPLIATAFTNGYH
B1 showed a binding signal of 0.412 enrichment R.
In the case of B2, the binding signal is reported as 0.302 enrichment R.
In the case of B3, the binding signal is reported as 0.582 enrichment R.
B4 was tested, and the binding signal was 0.34 enrichment R.
With B5 the binding signal was 0.516 enrichment R.
Work on B6 yielded a binding signal of 0.173 enrichment R.
Binder B7 has a binding signal of 0.221 enrichment R.
B8 showed a binding signal of 1.57 enrichment R.
Work on B9 yielded a binding signal of 4.24 enrichment R.
B10 was tested, and the binding signal was 1.04 enrichment R.
Work on B11 yielded a binding signal of 0.218 enrichment R.
For B12, the binding signal was 0.314 enrichment R.
In the case of B13, the binding signal is reported as 1.87 enrichment R.
B14 gave a binding signal of 0.235 enrichment R.
For B15, the binding signal was 1.21 enrichment R.
B16 was tested, and the binding signal was 1.11 enrichment R.
B17 showed a binding signal of 0.34 enrichment R.
B18 was tested, and the binding signal was 0.434 enrichment R.
For B19, the binding signal was 0.211 enrichment R.
Work on B20 yielded a binding signal of 0.437 enrichment R.
Binder B21 has a binding signal of 0.548 enrichment R.
B22 was tested, and the binding signal was 0.484 enrichment R.
